# Reference: publication PMC4336329 (PLoS ONE, 2015)
# The whole screen tested about 310,000 compounds, of which about 14,000 (4.5%) showed an effect of 50% or more. The effect is printed as a negative number. The list shows a part of the results.
# Biological target: human ether-à-go-go-related gene (hERG) potassium channel (human, UniProt Q12809)
# Assay: primary screen, population patch clamp on CHO cells stably expressing hERG
# 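Note: peak tail current of the secondary pulse compared with the same well before compound.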
# Chain of human ether-à-go-go-related gene (hERG) potassium channel (Q12809 whole entry, looked up): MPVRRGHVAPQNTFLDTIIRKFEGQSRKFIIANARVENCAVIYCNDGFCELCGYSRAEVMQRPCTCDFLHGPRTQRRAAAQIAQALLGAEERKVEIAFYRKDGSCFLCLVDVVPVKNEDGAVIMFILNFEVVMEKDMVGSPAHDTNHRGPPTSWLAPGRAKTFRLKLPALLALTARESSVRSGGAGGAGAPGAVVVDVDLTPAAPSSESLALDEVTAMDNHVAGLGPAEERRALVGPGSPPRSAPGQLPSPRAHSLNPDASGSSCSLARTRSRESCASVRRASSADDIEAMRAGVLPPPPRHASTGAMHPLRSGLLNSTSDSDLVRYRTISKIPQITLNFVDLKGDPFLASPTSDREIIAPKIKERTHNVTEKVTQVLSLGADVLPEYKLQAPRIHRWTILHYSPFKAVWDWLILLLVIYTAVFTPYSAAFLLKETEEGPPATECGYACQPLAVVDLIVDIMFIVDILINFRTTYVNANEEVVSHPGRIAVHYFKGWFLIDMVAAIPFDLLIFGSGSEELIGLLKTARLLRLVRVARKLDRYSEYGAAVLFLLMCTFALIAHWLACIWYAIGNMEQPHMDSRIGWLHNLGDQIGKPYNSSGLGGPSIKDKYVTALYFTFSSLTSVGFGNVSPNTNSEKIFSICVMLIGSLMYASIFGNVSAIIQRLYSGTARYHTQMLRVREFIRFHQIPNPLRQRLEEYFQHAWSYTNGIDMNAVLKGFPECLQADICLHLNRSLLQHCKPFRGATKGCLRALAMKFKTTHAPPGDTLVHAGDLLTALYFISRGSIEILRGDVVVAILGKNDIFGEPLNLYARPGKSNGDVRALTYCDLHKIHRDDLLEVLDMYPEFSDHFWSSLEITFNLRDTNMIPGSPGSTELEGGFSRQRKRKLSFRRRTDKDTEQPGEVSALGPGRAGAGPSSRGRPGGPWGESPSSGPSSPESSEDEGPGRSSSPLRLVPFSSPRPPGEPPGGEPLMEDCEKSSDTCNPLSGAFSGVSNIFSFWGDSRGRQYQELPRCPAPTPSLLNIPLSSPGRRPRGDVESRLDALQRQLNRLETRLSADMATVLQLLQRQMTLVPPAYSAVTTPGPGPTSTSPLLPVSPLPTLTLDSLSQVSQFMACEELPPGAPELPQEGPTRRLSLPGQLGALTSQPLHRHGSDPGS
row,SMILES,"hERG current change (%, negative = inhibition) at 10uM"
1,COC(=O)c1c(-c2cccc(C)c2)csc1N,6.74%
2,CCn1cc(/C=C(\NC(=O)c2ccccc2Cl)C(=O)N2CCOCC2)c2ccccc21,-2.35%
3,COc1ccc(C(=O)Nc2ccccc2N2CCN(C(=O)C(C)C)CC2)cc1Cl,-30.9%
4,CC(CN1CCNCC1)(NS(=O)(=O)c1ccccc1)c1ccccc1 (stereo not drawn),-44.7%
5,O=C(Nc1ncccn1)c1ccc([N+](=O)[O-])o1,11.8%
6,N#Cc1nc(Cc2cccc3ccccc23)oc1NCCN1CCCCC1,-60.3%
7,COc1cc(C2/C(=C(\O)c3ccc4c(c3)CC(C)O4)C(=O)C(=O)N2CCCn2ccnc2)ccc1O (stereo not drawn),10.1%
8,Cc1cc(NC(=O)CSc2ncnc3ccccc23)no1,21.8%
9,c1ccc2c3c([nH]c2c1)C(C1CCCCC1)N(Cc1ncc[nH]1)CC3 (stereo not drawn),-39.5%
10,O=C(COC(=O)c1cc(-c2ccccn2)nc2ccccc12)Nc1ncc(C(F)(F)F)cc1Cl,17.8%
11,CCCNC(=O)Cn1c(=O)cnc2ccccc21,26.3%
12,C=C(C)C(=O)NC1=NN(c2ccccc2)C(=O)C1,12.7%
13,COc1ccc2[nH]cc(CCNC(=O)c3ccc4ccccc4n3)c2c1,6.73%
14,Cc1cccc(OCC(O)CN2CCNCC2)c1.Cl (stereo not drawn),26.5%
15,CCOC(=O)C(C)S(=O)(=O)c1ccc(C(F)(F)F)cn1 (stereo not drawn),4.21%
16,C[C@@H](C(=O)N[C@H](C(=O)O)c1ccccc1)n1nnc2ccccc2c1=O,13.7%
17,Cc1cc(C)nc(Sc2nc(Cl)nc(N(c3ccccc3)c3ccccc3)n2)n1,12.8%
18,O=[N+]([O-])c1ccc(/C=N/n2c(-c3cccnc3)n[nH]c2=S)cc1,17.2%
19,CN(CC(=O)Nc1cccc(F)c1)C(=O)CN1C(=O)NC2(CCCCC2)C1=O,0.571%
20,Cc1ccc(C2CC(C(F)(F)F)n3nc(C(=O)NCc4c(C)nn(C)c4C)c(Cl)c3N2)cc1 (stereo not drawn),-40.1%
21,Cc1ccc(NC(=O)CC2SC3=NCCCN3C2=O)c(C)c1 (stereo not drawn),9.89%
22,OCC1(Cc2ccc(F)cc2)CCCN(Cc2ccc(F)cc2Cl)C1 (stereo not drawn),-2.59%
23,C#CCOCCOCCOCCNc1nc(N2CCOCC2)nc(N2CCN(C(=O)CCCCCCCCCCNC(=O)[C@@H]([C@H](C)O)n3cc(C)nn3)CC2)n1,9.2%
24,CC(C)N(C(=O)CSc1nnc(-c2ccc3c(c2)OCO3)n1C)C(C)C,-2.31%
25,O=S(=O)(c1ccc(Cl)cc1)n1ccc(-c2cccc(OCc3c(F)cccc3Cl)c2)n1,6.56%
26,O=C(O)CCn1c(Cc2ccccc2)nc2ccccc21,15.7%
27,Cc1ccc(S(=O)(=O)N2CCOCC2)cc1NC(=O)COc1ccc2c(C)cc(=O)oc2c1,9.08%

row,SMILES,"hERG current change (%, negative = inhibition) at 10uM"
1,CCC1=C(OC(=O)N(CC)CC)N2C(=O)OC(=NCCOC)[C@]2(Cc2ccccc2)[C@H]2C1=CC[C@H]1C(=O)N(CC(=O)OC)C(=O)[C@H]12,-10.3%
2,CNS(=O)(=O)c1cccc(C(=O)OCc2csc(-c3ccccc3)n2)c1,-6%
3,COc1ccc(/C(O)=C2\C(=O)C(=O)N(Cc3ccco3)C2c2cc(OC)ccc2OC)cc1 (stereo not drawn),12.3%
4,NC(=O)CSc1nnc(-c2ccccc2Br)n1-c1cccc(C(F)(F)F)c1,-11.9%
5,CSCCC(NC(=O)c1ccc(Cl)cc1)C(=O)OCC(=O)N1CCCC1=O (stereo not drawn),-2.69%
6,O=[N+]([O-])c1ccccc1NC(=S)N/N=C/c1ccc(O)c(O)c1,10%
7,CN1CCCC(OC(=O)c2cc(Cl)cc(Cl)c2)C1.Cl (stereo not drawn),-43.4%
8,CCOC(=O)c1snc(C(=O)NC2CCCCC2)c1N,-6.13%
9,c1ccc(Cc2noc(CN3CCN(C4CCc5ccccc5C4)CC3)n2)cc1 (stereo not drawn),-81.2%
10,O=C(c1ccccc1)N1CCN(C(=O)c2cc3ccccc3o2)CC1,-23.8%
11,CCOc1ccc(CCNC(=O)COC(=O)c2cc([N+](=O)[O-])ccc2N2CCOCC2)cc1OCC,-24.7%
12,c1coc(-c2nnc3sc(C4CCCCC4)nn23)c1,-46.9%
13,N=c1oc2ccccc2cc1C(=O)Nc1cccc(F)c1,20%
14,Cc1cc(NS(=O)(=O)c2ccc(NC(=O)/C=C/c3c(F)cccc3Cl)cc2)nc(C)n1,19.7%
15,Cc1cccc(/C=C/c2onc(C)c2[N+](=O)[O-])n1,6.94%
16,CC(=O)Nc1sc2c(c1C#N)CCCCC2,15%
17,Cc1ccccc1NC(=O)Cc1nc(COC(=O)COc2ccccc2C(C)C)cs1,-17.2%
18,O=C(OCC1CC(c2ccccc2)=NO1)c1ccc(Br)cc1 (stereo not drawn),17.5%
19,CCOC(=O)N1CCN(C(=O)CCc2ccccc2)CC1,5.12%
20,Cc1cnn(-c2cc(N/N=C/c3ccc(F)cc3)ncn2)c1,5.69%
21,COc1ccc(C)cc1COC(=O)c1[nH]c(C)c(C(C)=O)c1C,-1.51%
22,CC(C)c1ccc(NC(=O)CSc2n[nH]c(=O)n2-c2cccnc2)cc1,5.5%
23,Nc1nc(Nc2ccccc2)nc(NCc2ccccc2)c1[N+](=O)[O-],9.27%
24,CN(Cc1ccccc1)C(=O)CSc1n[nH]c(N)n1,4.21%
25,CCOc1ccc2[nH]c3c(NCCC(C)C)ncnc3c2c1,7.2%
26,Cc1csc(NC(=O)CSc2nnc(NC(=O)COc3ccccc3)s2)n1,12.3%
27,CCN(C(=O)Cc1c(C(=O)O)n(CC)c2ccccc12)c1cccc(C(F)(F)F)c1,13.1%
